# From PubChem BioAssay AID1347120 (National Center for Advancing Translational Sciences (NCATS), 2019)
# The campaign covered roughly 390,000 compounds. About 930 (0.24%) were called active. The shares of active, inactive and inconclusive entries below differ from those in the screen. Calls follow the shape of the dose curve; as a rule, active = well fitted activation curve with a large enough effect; inconclusive = small, poorly fitted or top-dose-only effect; inactive = no such curve, though single readings can be large or run the other way. A potency beside an inconclusive call is a rough fit, not a confirmed value.
# Experiment: qHTS for Suppressors of FUS Proteinopathy: Primary screen using FUS-linked yeast assay; also: nearly all actives have a fitted effect of over 55% in size;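 as to growth rescue (activation): plate controls were DMSO vehicle for no effect and reference control for full effect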
# Settings: S. cerevisiae FUS-expressing, OD600, 24 h; Potency: growth rescue; growth rescue (activation): at 76.6 µM (top of the series)
# Outline: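 S. cerevisiae expressing FUS from galactose induction served as the toxicity model. Growth after 24hr at 30C, read as absorbance at 600 nm, indicates suppression of toxicity; compounds dosed at several concentrations.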
# Potency is read from the fitted curve at half-maximal effect; tags tell the direction and shape of the fitted curve.
SMILES,growth rescue (activation),Potency
COc1ccc(C(=O)N2CCC2)cc1S(=O)(=O)NCc1ccc(Cl)cc1,inactive: 5.17%,
Cc1ccccc1-c1cccc([C@@H]2C[C@H]3[C@H](CON3C)CN2S(=O)(=O)c2ccccc2C)c1,,"inconclusive: 31.6 µM [activator, partial curve, poor fit]"
COc1cccc(N2CCN(C(=O)c3ccc4nc(N5CCCCC5)sc4c3)CC2)c1,,"inconclusive: 12.6 µM [activator, partial curve]"
COc1cccc(C(c2sc3nc(-c4ccco4)nn3c2O)N2CCN(c3ccccc3F)CC2)c1 (stereo unspecified),,active: 8.91 µM
CC(O)Cn1ccccc1=N (stereo unspecified),inactive: 10.7%,
CCOc1ccc(N(C(C)C(=O)NCCSc2ccc(C)cc2)S(C)(=O)=O)cc1 (stereo unspecified),,"inconclusive: 15.8 µM [activator, partial curve]"
CCN1CCN(C(c2ccccn2)c2c(NC(=O)c3ccccc3)sc(C)c2C)CC1 (stereo unspecified),,"inconclusive: 35.5 µM [activator, single point]"
COCCCN1C(=O)[C@H](CC(=O)N2CCCCC2)[C@]2(C(=O)OC)CCCCC=C12,inactive: 8.96%,
COc1ccccc1NC(=O)CCn1cnc2onc(-c3ccc(F)cc3)c2c1=O,,"inconclusive: 31.6 µM [activator, single point]"
Cc1cc(C)cc(Nc2c3c(nc4ncnn24)CCC3)c1,inactive: 14%,
CCCNC(=O)CNC(=S)N(Cc1ccccc1F)C1CCCCC1,inactive: 15.6%,
CCOC(=O)c1ccccc1NC(=O)COC(=O)c1c(CC)noc1C,,"inconclusive: 31.6 µM [activator, partial curve, poor fit]"
COc1ccccc1OCC(=O)N(Cc1nc(-c2ccccc2)no1)C(C)C,,"inconclusive: 15.8 µM [activator, partial curve, poor fit]"
COc1ccc2c(c1)C(=O)N1[C@H]3c4cc(C)ccc4OC[C@@H]3[C@H](c3ccccc3)[C@]1(C)C(=O)N2,,"inconclusive: 7.94 µM [activator, full curve]"
COc1ccc(S(=O)(=O)N2CCC(C(=O)N3CCc4ccccc4C3)CC2)cc1Cl,,"inconclusive: 35.5 µM [activator, single point]"
CC(C)N(C(=O)[C@H]1C[C@H](CC(=O)NCCC2=CCCCC2)C(=O)N2CCc3c([nH]c4ccc(Cl)cc34)[C@]12C)C(C)C,,"inconclusive: 11.2 µM [activator, single point]"
Cn1c(SCC(=O)Nc2cccc(NC(=O)c3cccs3)c2)nnc1-c1ccncc1,,"inconclusive: 7.08 µM [activator, single point]"
CCOC(=O)C1=C(C)NC(C)=C(C(=O)OCC)C1C(=O)OCC(=O)NCCc1ccccc1,,"inconclusive: 20 µM [activator, partial curve, poor fit]"
CCC1(C)Cc2ccccc2-c2nc(NCCO)n(-c3ccc(C)cc3)c(=O)c21 (stereo unspecified),,"inconclusive: 31.6 µM [activator, partial curve, poor fit]"
COCCCNC(=S)N1CCC(C(=O)c2ccc(Cl)cc2)CC1,inconclusive: -80.7% [activator],
O=c1c(N2CCCCC2)csc2ccc(F)cc12,inactive: 8.71%,

SMILES,growth rescue (activation),Potency
CC(Sc1nc(N)cc(=O)[nH]1)C(=O)NNC(=O)c1cccc(Cl)c1 (stereo unspecified),,"inconclusive: 25.1 µM [activator, partial curve]"
Cn1cccc1/C=N/N1CCN(Cc2ccccc2Cl)CC1,inconclusive: -51.9% [activator],
COc1ccc(C2=Nn3c(nnc3-c3ccccc3OC)SC2)cc1OC1CCCC1,,"inconclusive: 25.1 µM [activator, partial curve]"
Cc1cccc(NC(=O)c2cc3c(=O)n4ccccc4nc3n2C)c1C,inactive: -17%,
CC(C)(C)OC(=O)[C@H](Cc1ccccc1)NC(=O)c1nc[nH]c1C(=O)NCc1ccccc1,,"inconclusive: 22.4 µM [activator, single point]"
COc1cc(OC)cc(C2=Cc3ccc(OC)cc3C(CC(C)=O)N2c2ccc(C#CCCO)cc2)c1 (stereo unspecified),,"inconclusive: 50.1 µM [activator, single point]"
CCCOc1ccc(C2C(C(=O)c3ccc(C)o3)=C(O)C(=O)N2Cc2ccco2)cc1OCC (stereo unspecified),,"inconclusive: 25.1 µM [activator, single point]"
CC(=O)Nc1ccc(-c2c(C)cc3oc(=O)cc(-c4ccccc4)c3c2C)cc1,,"inconclusive: 44.7 µM [activator, single point]"
Cc1ccc(C)c(OCc2nnc(NC(=O)c3ccc4c(c3)OCO4)s2)c1,inactive: 3.78%,
Cc1cc(C(=O)CN2C(=O)C(=O)N(C3CCCC3)C2=O)c(C)n1CCc1ccc(F)cc1,,"inconclusive: 50.1 µM [activator, single point]"
CCOc1ccccc1CNC(=O)CCCN1C(=O)c2cccnc2Oc2ccc(Cl)cc21,,"inconclusive: 35.5 µM [activator, single point]"
COc1ccc(-n2c(=O)c3c4c(sc3n(CC(=O)NC3CCCC3)c2=O)CCCC4)c(OC)c1,,"inconclusive: 50.1 µM [activator, single point]"
COC(=O)CN1C(C(=O)c2ccccc2)=C(OC(=O)c2ccc(C)cc2)c2ccccc2S1(=O)=O,,"inconclusive: 35.5 µM [activator, single point]"
O=C(CCCN1C(=O)/C(=C\c2ccccc2)SC1=S)Nc1ccc(O)cc1,,"inconclusive: 17.8 µM [activator, partial curve, poor fit]"
CC1CCCC2(C1)NC(=S)c1c(sc3c1CCCC3)N2 (stereo unspecified),,"inconclusive: 17.8 µM [activator, partial curve, poor fit]"
CCN(c1ccc(NC(=O)c2ccc(Cl)nc2)cc1)C(C)C,inactive: -24%,
O=C(c1ccc(Br)s1)N(Cc1cccnc1)c1nc2ccc(F)cc2s1,inactive: -18.3%,
CCOc1ccccc1NC(=O)CN1C(=O)COc2ccc(S(=O)(=O)N3CCCCC3)cc21,inactive: 36.5%,
C[C@@]12C(=O)N(Cc3ccc(-c4ccccc4)cc3)CC(=O)N1[C@H](/C=C/c1ccccc1)[C@@H]1C(=O)N(c3ccccc3)C(=O)[C@@H]12,,"inconclusive: 50.1 µM [activator, single point]"
Cc1c(C(=O)Nc2ccccc2)cnn1-c1ccccc1,inactive: 6.74%,
Cc1ccc(C)c(N2CCN(C(=O)CC3Sc4ccccc4NC3=O)CC2)c1 (stereo unspecified),,"inconclusive: 28.2 µM [activator, single point]"

SMILES,growth rescue (activation),Potency
N#Cc1c(-c2ccccc2)nc(SCC(=O)N2c3ccccc3Sc3ccccc32)[nH]c1=O,,"inconclusive: 31.6 µM [activator, single point]"
Brc1ccccc1-c1nnc2sc(-c3ccc4c(c3)OCCO4)nn12,,"inconclusive: 25.1 µM [activator, partial curve]"
O=C1N[C@@H](Cc2ccccc2)C(=O)N2[C@H]3Nc4ccccc4[C@@]3([C@]34C[C@H]5C(=O)N[C@@H](Cc6ccccc6)C(=O)N5[C@H]3Nc3ccccc34)C[C@@H]12,,"inconclusive: 4.47 µM [activator, full curve, poor fit]"
COc1cc(C(=O)N2C(=O)c3cccc(N)c3C2=O)cc(OC)c1OC,,"inconclusive: 11.2 µM [activator, single point]"
COc1cc(NC(=O)CN2C(=O)NC(C)(c3ccc4ccccc4c3)C2=O)c(C)cc1[N+](=O)[O-] (stereo unspecified),,"inconclusive: 35.5 µM [activator, single point]"
CON(C)S(=O)(=O)c1ccc2c(c1)N(Cc1ccc(C)cc1)C(=O)C1CCCN21 (stereo unspecified),,"inconclusive: 25.1 µM [activator, partial curve, poor fit]"
O=C(CSc1nc2ccccc2n1CCc1ccccc1)c1ccc(O)c(O)c1,,"inconclusive: 50.1 µM [activator, single point]"
COC(=O)[C@]12C[C@H](CC(=O)N3CCSCC3)C(=O)N(Cc3ccc(Cl)cc3Cl)C1=C[C@H](C1CCCC1)O[C@@H]2C,,"inconclusive: 8.91 µM [activator, partial curve]"
CCN(CCCNC(=O)c1cc(Nc2ccc(OC)cc2OC)nc2ccccc12)c1cccc(C)c1,,"inconclusive: 28.2 µM [activator, single point]"
NNC(=O)c1sc2nc(N3CCOCC3)c3c(c2c1N)CCCC3,,"inconclusive: 35.5 µM [activator, single point]"
Cc1ccc(O)c(NC(=O)c2cc(-c3ccccc3Cl)on2)c1,inactive: 12.2%,
CCN(c1ccccc1)S(=O)(=O)c1cccc(C(=O)OCc2nc3sc(C)c(C)c3c(=O)[nH]2)c1,,"inconclusive: 35.5 µM [activator, single point]"
CC(C)=CCc1cc([C@@H]2COc3c(ccc4c3C=CC(C)(C)O4)C2)c(O)cc1O,,"inconclusive: 35.5 µM [activator, single point]"
COc1ccccc1CCNC(=O)C(=O)c1cn(CC(=O)N2CCCC2)c2ccccc12,,"inconclusive: 50.1 µM [activator, single point]"
C[C@H](NC(=O)c1nc[nH]c1C(=O)NCC(=O)OCc1ccccc1)C(=O)OCc1ccccc1,,"inconclusive: 31.6 µM [activator, single point]"
CCCc1nc(N)nc2c1C(=O)CC(C)(C)C2,,"inconclusive: 11.2 µM [activator, single point]"
O=C(COc1ccccc1[N+](=O)[O-])N1CCC(c2nc3ccccc3o2)CC1,inactive: 27.9%,
O=C(O)C(Cc1ccccc1)N1C(=O)/C(=C/C=C/c2ccco2)SC1=S (stereo unspecified),inactive: 24%,
CCOc1cc2sc(N3CCC(C(=O)NCCCN4CCCC4=O)CC3)nc2cc1Br,,"inconclusive: 14.1 µM [activator, partial curve]"
